Laboratory results: the RNAGym collection of RNA variant scans (doi:10.1073/pnas.2313332121)
Variants at the background level are over-represented here.

B1: TPR 5TU (parent)
chain: GGAUCUUCUCGAUCUAACAAAAAAGACAAAUCUGCCACAAAGCUUGAGAGCAUCUUCGGAUGCAGAGGCGGCAGCCUUCGGUGGCGCGAUAGCGCCAACGUUCUCAACUAUGACACGCAAAACGCGUGCUCCGUUGAAUGGAGUUUAUCAUG

Variants of: B1
Assay: polymerase ribozyme fitness, log enrichment relative to wild type (log ratio); higher = more active; in vitro selection for triplet polymerase activity
How it was run: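 Libraries of mutants in each subunit of a heterodimeric triplet polymerase ribozyme were generated by PCR and transcribed. In triplicate, each went through one in vitro selection round: annealing with biotinylated primer, partner subunit and triplets; frozen incubation at −7 °C; gel excision of extended constructs; streptavidin-bead capture; RT-PCR. Fitness, taken from Illumina sequencing of input and output libraries, is the logarithm of a genotype's enrichment over wild-type enrichment, averaged across replicates with inverse-variance weights. The logarithm is base 2, and genotypes needed ≥10 input reads and ≥1 read per output to be kept.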

Row | Variant | polymerase ribozyme fitness (log ratio)
1 | GGAUCUUCUCGAUGUGACAAAAAAGACAAAUCUGCCAUAAAGCUUGAGAGCAUCUUCGGAAGCAGAGGCGGCAGCCUUCGGUGGCGCGAUAGCACCAACGUUCUCAACUAUGACACGCAAACCGCGUGCUCCGUUGAAUGGAGUUUAUCAUG [C14G A16G C38U U61A G94A A122C] | ≤ -4.2
2 | GGAUCUUCUCGAUGUAACGAAAAAGACAAAUCUGCCACAAAGCUUGAGAGCAUCUUCGGAUGCAGAGGCGGCAGCCUUCGGUGGCGCGAUAGCGCGAACGUUCUCAACUAUGACACGCAAAACGCGUGCUCCGUUGAAAGAAGUUUAUCAUG [C14G A19G C96G U139A G141A] | ≤ -4.2
3 | GGAUCUUCUCGAUAUAACAAAAAAGACAAAUCUGCCACAAAGCAUACGAGCAUCUUCGGAUGCAGAGGCGGCAGCCUUCGGUGGCGCUAUAGCGCCAGCGGUCUCAACUAUGACACGCAAAACGCGUGCUCCGUUGAAUGGAGUUUAUCAUG [C14A U44A G46A A47C G88U A98G U101G] | ≤ -4.2
4 | GGAUCUUCUCGAUGUAACCAAAAAGACAAACCUGCCACAAAGCUUGAGAGCAUCUUCGGAUGCAGAGGGGGCAACCUUCGGUGUCGCGAUAGCGCCAACGUUCUCAGCUAUGACACGCAAAACGCGUGCUCCGUUGAAUGGAGUAUAUCACG [C14G A19C U31C C69G G74A G84U A107G U145A U151C] | ≤ -4.2
5 | GGAUCUUCUCGAUGUAACAAAAAAGACAAAUCUGCCACAAAGCUUGAGAGCAUCUUCGGAUGCAGAGGCGGCAGCCUUCGGUGGCGCGAUAGCGCCAACGUUCUCAACUAUGACACGCAAAACGCGUGCUCCGUUGAAUGGAGUUUAUCAUG [C14G] | -2.09
6 | GGAUCUUCUCGAUGUAACGAAAAAGACAAAUCUGCCACAAAGCUUGAGAGCAUCUUCGGAUGCAGAGGCGGCAGCAUUCGGUGGUGCGAUUGCGCCAACGUUCUCAACUAUGACCCGCAAAACGCGUGCUCCGUUGAAUGGAGUUUAUCGUG [C14G A19G C76A C85U A91U A115C A150G] | ≤ -4.2
7 | GGAUCUUCUCGAUAGAACAAAAAAGACAAAUCUGCCUCAAAGCUUGAGAGCAUCUUCGGAUGCAGAGGCGGCAGCCUUUGGUGGCGCGAUAGGGCCAACGUUCUCUACUAUGACACGCAAAACGCGUGCUCCGUUGAAUGGAGCGUAUCAUG [C14A U15G A37U C79U C93G A106U U144C U145G] | ≤ -4.2
8 | GGAUCUUCUCGAUGUAACGAAAAAGACAAAUCUGCCACAAAGCUUGAGAGCAUCUUCGGAUGCAGAGGCGGCAGCCUUCGGUGGCGCGAUAGCGCCAACGUUCUCAAUUAUGACACGGAAAACGCGUGCUCCGUUGAAUGGAGUUUAUCAUG [C14G A19G C108U C118G] | ≤ -4.2
9 | GGAUCUUCUCGAUAUAACAAAAAAGACAAAGCUGCCACAAAGCUUGAGAGCAUCUUCGGAUGCAGAGGCGGCAGCAUUCGGUGGCGCGAUAGGGCCAACGUUCUCCACUAUGACACGCAAAACGCGUGCUCCGUUGAAUGGAGUUUAUCAUG [C14A U31G C76A C93G A106C] | ≤ -4.2
10 | GGAUCUUCUCGAUGUAGCAAAAAAGACAAAUCUGCCACAAAGCUUGAGAGCAUCUUCGGGUGCAUAGGCGGCAGCCUUCGGUGGUGCGAUAGCGCCAACGUUCUCAACUAUGACACGCAAGACGCGUGCUCCGUUGAAUGGAGUUUACCAUG [C14G A17G A60G G65U C85U A121G U148C] | ≤ -4.2
11 | GGAUCUUCUCGAUGUUACAAAAAAGACAAAUCCGCCACAAAGCUUGAUAGCAUCUUCGUCUGCAGAGGCGGCAGCCUUCGGUGGUGCGAUAGCGCCAACGGUCUCAACUAUGACACGCAUAACGCGUGCUCCGUUGAAUGGAGGUUACCAUG [C14G A16U U33C G48U G59U A60C C85U U101G A120U U144G U148C] | ≤ -4.2
12 | GGAUCUUCUCGAUGUAACGAAAAAGACAAAUCUGCCACCAAGCUUGAGAGCAUCUUCGGAUGCAGAGGCGGCAGCCUUCGGUGGCGCGAUAGCGCCAACGUUCUCAACUAUGACACGCAAAACGCGUGCUCCGUUGAAUGACGGUUAUCAUG [C14G A19G A39C G141A A142C U144G] | ≤ -4.2
13 | GGAUCUUCUCGAUAUAACAAAAAAGACAAAUCUGCCACAAAGCGUGAGAGCAUCUUCGGAUGCAGAGGCGGCAGCCUUCGGUGGCGCAAUAGCUCCAACGUUCUCAAAUAUGUCACGCAAAACGCGUGCUCCGUUGAAUGGAGUUUAUCAUG [C14A U44G G88A G94U C108A A113U] | ≤ -4.2
14 | GGAUCUUCUCGAUAUAACAAAAAAGACAAAUCUGCCACAAAGCUAGAGAGCAUUUUCGGAUGCAGAGGCGGCAGUCUUCGGUGGCGCGAUAGCACCAACGUUCUCAACUAUGACACGCAAAACGCGUGCUCCGUUGAAUGGAGUUUAUCAUG [C14A U45A C54U C75U G94A] | ≤ -4.2
15 | GGAUCUUCUCGAUAUAACAAAAAAGACAAAUCUGCCACAAAGCAUGAGAGCAUCUUCGGGUGCAGAGGCGGCAGCCUUCGGUGGCGCGAUAGCGCCAACGUUCUCAACUAUGACACGCAAAGCGCGUGCUGGGUUGCAUGGAGUUUAUCAUG [C14A U44A A60G A122G C131G C132G A137C] | ≤ -4.2
16 | GGAUCUUCUCGAUGUAGCAAAAAAGACAAAUCUGCCACAAAGCUUGAGAGCAUCUUCGGAUGCAGAGCCGGCAGCCUUCGGUGGCGCGAUAGCGCCAACGUUCUCAACUAUGACACGCAUAACGCGUGCUCCGUUGAAUGGAGUUUAUCAUA [C14G A17G G68C A120U G152A] | ≤ -4.2
17 | GGAUCUUCUCGAUGUAACCAAAAAGACCAAUCUGCCACAAAACUUGAGAGCAUCUUCGGAUGCAGGGGCGGCAGCCUUCGGUGGCGCGAUAGUGCCAACGUUUUCAACAAUGACACGCAAAACGCGUGCUCCGUUCAAUGGAGUUUAUCAUG [C14G A19C A28C G42A A66G C93U C103U U109A G136C] | ≤ -4.2
18 | GGAUCUUCUCGAUGUAUCAAAAAAGACAAAUCUGCCACAAAGCUUGAGAGCAACUUCGGAUGCAGAGGCGGCAGCCUUCGAUGGUGCGAUAACGCCAACGUUCUCAACUAUGACACGCAAAACGCGUGCUCCGUUGAAUGGAGUUUAUCAUG [C14G A17U U53A G81A C85U G92A] | ≤ -4.2
19 | GGAUCUUCUCGAUAUAACAAAAAAGACAAAACUGCCACAAAGCUUGAGAGCAUCUUCGGAUGCAGAGGCGGCAGGCUUCGGUGGCGCGAUAGCGUCAACGUUCUCAACUAUGACAAGUAAAACGCGUGCUCCGUUGAAUGGAGUUUAUCAUG [C14A U31A C75G C95U C116A C118U] | ≤ -4.2
